Reference: publication PMC5291247, “The histone chaperone Vps75 forms multiple oligomeric assemblies capable of mediating exchange between histone H3–H4 tetramers and Asf1–H3–H4 complexes” (Nucleic Acids Research, 2016)

Target: histones H3–H4 from which native cysteine residues had been removed (Xenopus, UniProt P84233; P62799)
Experiment: cross-linking; cross-linking analysis of Vps75 with Asf1 and H3-H4, SDS-PAGE (Supplementary Figure S4)
Settings: both partners purified

B1: globular, cysteine-free Asf1 (Asf1g […]) (domain or fragment)
chain: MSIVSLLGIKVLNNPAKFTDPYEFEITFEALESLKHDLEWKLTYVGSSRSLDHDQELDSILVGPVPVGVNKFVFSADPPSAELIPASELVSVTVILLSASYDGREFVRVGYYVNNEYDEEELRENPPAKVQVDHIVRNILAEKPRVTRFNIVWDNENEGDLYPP
In the case of B1, the “stoichiometry N” value is reported as 1 Asf1 per H3-H4 dimer.
